Measured values: PubChem BioAssay AID504332 (National Center for Advancing Translational Sciences (NCATS), 2011)
Where “and” joins values, the source holds several entries; their conditions need not be identical. Equal values may be shown once. Screen size: about 350,000 compounds; about 31,000 (8.9%) were called active. Inconclusive results, whose numbers are uncertain, are shown with a selection of clear calls. Calls come from the whole dose curve; as a rule, active = well fitted inhibition curve with a large enough effect; inconclusive = small, poorly fitted or top-dose-only effect; inactive = no such curve, though single readings can be large or run the other way. Where the call is inconclusive, the potency comes from a doubtful curve fit.

target: Histone-lysine N-methyltransferase EHMT2 (Homo sapiens) (UniProt Q96KQ7); experiment: qHTS Assay for Inhibitors of Histone Lysine Methyltransferase G9a; details: G9a H3K9 monomethylation, AlphaScreen, 2 h; activity, negative = inhibition: at 59 µM (top of the series) unless noted; note: nearly all actives have a fitted effect of over 75% in size
UniProt Q96KQ7, sequence (Q96KQ7 whole entry, looked up): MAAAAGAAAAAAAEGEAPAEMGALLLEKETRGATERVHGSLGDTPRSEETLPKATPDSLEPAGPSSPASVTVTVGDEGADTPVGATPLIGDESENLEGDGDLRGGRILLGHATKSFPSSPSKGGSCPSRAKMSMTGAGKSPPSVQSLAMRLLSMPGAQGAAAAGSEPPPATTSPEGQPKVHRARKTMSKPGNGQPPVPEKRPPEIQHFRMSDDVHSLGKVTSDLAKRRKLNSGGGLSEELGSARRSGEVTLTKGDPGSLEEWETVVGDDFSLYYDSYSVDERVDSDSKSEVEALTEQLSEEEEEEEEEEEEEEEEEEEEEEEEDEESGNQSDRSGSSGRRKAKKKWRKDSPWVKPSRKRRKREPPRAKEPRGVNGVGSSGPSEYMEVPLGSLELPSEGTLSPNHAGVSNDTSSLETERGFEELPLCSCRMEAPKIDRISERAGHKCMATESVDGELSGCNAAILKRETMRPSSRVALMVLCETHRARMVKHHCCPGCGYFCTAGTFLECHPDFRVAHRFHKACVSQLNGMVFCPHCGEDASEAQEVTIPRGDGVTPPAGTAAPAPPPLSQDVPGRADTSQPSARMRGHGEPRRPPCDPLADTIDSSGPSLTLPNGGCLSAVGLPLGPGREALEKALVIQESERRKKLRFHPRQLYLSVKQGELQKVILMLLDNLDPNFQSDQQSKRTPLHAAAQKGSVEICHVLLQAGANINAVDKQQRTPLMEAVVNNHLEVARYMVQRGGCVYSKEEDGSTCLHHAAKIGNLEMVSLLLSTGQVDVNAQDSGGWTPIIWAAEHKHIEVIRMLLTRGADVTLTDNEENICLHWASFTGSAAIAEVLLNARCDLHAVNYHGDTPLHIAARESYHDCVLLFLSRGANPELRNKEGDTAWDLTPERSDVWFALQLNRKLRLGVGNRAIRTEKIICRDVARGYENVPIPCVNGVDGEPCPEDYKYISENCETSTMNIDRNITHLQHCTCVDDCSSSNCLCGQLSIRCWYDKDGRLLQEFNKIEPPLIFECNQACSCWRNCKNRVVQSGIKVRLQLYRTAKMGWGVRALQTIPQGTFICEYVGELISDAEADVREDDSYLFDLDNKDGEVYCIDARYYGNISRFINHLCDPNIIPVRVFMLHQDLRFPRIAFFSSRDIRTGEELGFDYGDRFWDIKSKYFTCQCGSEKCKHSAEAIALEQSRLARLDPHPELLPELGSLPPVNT
Procedure, shortened: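 Using a bead-based AlphaScreen, monomethylated H3K9 product from 2 h room-temperature reactions (G9a 20 nM, peptide 500 nM, SAM 20 uM) was detected with 0.5 ug/mL rabbit anti-H3K9me1 antibody.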
% is set by controls: 0 for no effect and ±100 for the full control effect; potency is the fitted concentration of half-maximal effect; tags give direction and shape of the fitted curve.

SMILES	Potency	activity, negative = inhibition
O=C(COC(=O)c1cc(=O)[nH]c2ccccc12)NC(=O)c1ccccc1	inconclusive: 70.8 µM [inhibitor, partial curve, poor fit]	
Cc1c(Cl)cccc1NC(=O)Cn1c(CCC(=O)O)ccc1-c1ccc(Cl)cc1	inconclusive: 100 µM [inhibitor, single point]	
COc1ccc(OCc2cc(C(=O)N(C)C3CCOCC3)no2)c2ccccc12	inconclusive: 50.1 µM [inhibitor, single point]	
Cc1cc(C)cc(NC(=O)c2cnn(-c3ccccc3)c2C2CCNCC2)c1	active: 39.8 µM	
CCOc1ccc(NC(=O)CCc2nnc3n(C)c(=O)c4sccc4n23)cc1	inactive	
Cc1occc1C(=O)NCc1ccccc1F	inconclusive: 7.08 µM [inhibitor, single point]	
COc1ccc(-c2nc(NC(=O)C3=NN(c4cccc(C)c4)C(=O)CC3)sc2C)cc1	inconclusive: 44.7 µM [inhibitor, single point]	
CCN(Cc1ccccc1)C(=O)Cn1ncc2c(=O)oc3ccc(C)cc3c21	inconclusive: 39.8 µM [inhibitor, single point]	
Cc1ccccc1NC(=O)C(=Cc1ccc(C(=O)O)cc1)C(=O)Nc1ccccc1C	inconclusive: 50.1 µM [inhibitor, partial curve, poor fit]	
O=C(CSc1ncc2c(n1)-c1ccccc1N(Cc1ccc(Cl)cc1)S2(=O)=O)c1ccccc1	inactive	
COC(=O)c1cc(NC(=O)CN2CCc3cc4c(cc3C2)OCCCO4)cc(C(=O)OC)c1	inactive	
N#CCOc1coc(CN2CCN(c3cccc(Cl)c3)CC2)cc1=O	inconclusive: 89.1 µM [inhibitor, single point]	
CCOc1ccc(NC(=O)Cn2nnc(C(=O)NCc3ccc4c(c3)OCO4)c2N)cc1	inactive	
Nc1nc2ccc(C(=O)N3CCCCC3)cc2s1	inconclusive: 50.1 µM [inhibitor, partial curve]	
CCCOc1ccc(C2=CSC3=NCCN23)cc1[N+](=O)[O-]	inactive	
COC(=O)c1[nH]c2ccc(F)cc2c1NC(=O)CCN1CCN(C(=O)c2ccco2)CC1	inconclusive: 31.6 µM [inhibitor, partial curve, poor fit]	
CC(Oc1ccc(F)cc1)C(=O)Nc1ccccc1N1CCCCC1 (stereo not given)	inactive	
O=C(NNc1c2ccccc2nc2ccccc12)c1cccc(O)c1	inconclusive: 28.2 µM [inhibitor, single point]	
Cc1cc(C(=O)OCC(=O)NC(C)C)c2ccccc2n1	inactive	
CCOc1ccc(CNCc2c(C(=O)O)n(Cc3ccccc3C)c3cc(OC)ccc23)cc1OC	inactive	
Cn1cnnc1SCC(=O)N1N=C(c2ccc(Cl)cc2)CC1c1ccco1 (stereo not given)		inconclusive: -63.9% [inhibitor]
CC(=C/C(=O)O)/C=C/c1ccco1	active: 39.8 µM	
N#CC1=C(N)Oc2n[nH]c(-c3ccccc3)c2C1c1ccsc1 (stereo not given)	inconclusive: 39.8 µM [inhibitor, partial curve, poor fit]	
O=C(Nc1cc(Cl)ccc1Cl)c1noc2c1CCCC2		inactive: 27.6% [at 12.7 µM]

SMILES	Potency	activity, negative = inhibition
O=C(Cn1c(O)c(/C=C2\C=Nc3ccc(Br)cc32)sc1=O)N1CCCC1	inconclusive: 28.2 µM [inhibitor, single point]	
CC(=O)N(/N=C1\Sc2ccccc2C1=O)c1cccc(C)c1	inconclusive: 44.7 µM [inhibitor, partial curve, poor fit]	
COc1ccc(NC(=S)NNC(=O)c2nnn(-c3ccccc3)c2C)cc1	active: 11.2 µM	
CCOc1ccc(/C=N/N(C)c2ccccc2)cc1OC	active: 50.1 µM	
N#Cc1nc(-c2ccccc2F)oc1NCc1ccccc1	active: 39.8 µM	
CCC(C(=O)NC1CCCCC1)n1c(SCc2cccc(F)c2)nc2ccncc21 (stereo not given)	inconclusive: 50.1 µM [inhibitor, partial curve] and inconclusive: 17.8 µM [inhibitor, partial curve, poor fit]	
COc1ccc(Cn2nnnc2C(c2cccs2)N2CCN(c3ccccc3)CC2)cc1 (stereo not given)	inactive	
O=[N+]([O-])c1cc([N+](=O)[O-])c(Oc2cc(F)ccc2F)cc1NN1CCCCC1	inconclusive: 31.6 µM [inhibitor, single point]	
Cc1ccc(Cl)cc1N1CCN(C(=O)CCS(=O)(=O)c2ccc3c(c2)oc(=O)n3C)CC1	inactive	
CCc1ccc2c(c1)/C(=N/OC)C(=O)N2	inconclusive: 8.91 µM [inhibitor, single point]	
O=C(Nc1ccc(S(=O)(=O)Nc2ncccn2)cc1)c1ccco1	inconclusive: 28.2 µM [inhibitor, single point]	
CC(=O)c1sc(NC(=O)C2CC(=O)N(Cc3ccccc3)C2)nc1-c1ccccc1 (stereo not given)	active: 56.2 µM	
COc1cc(/C=C/C(=O)OCC(=O)Nc2oc(C)c3c(C)n[nH]c(=O)c23)ccc1OC(F)F	active: 14.1 µM	
Cn1c(Cl)nc2ccccc21		inactive: 7.43% [at 12.7 µM]
CNC(=O)C(N)CSC(C)C1=C(C)c2cc3[n-]c(cc4nc(cc5[n-]c(cc1n2)c(C)c5CCC(=O)O)C(CCC(=O)O)=C4C)c(C)c3C(C)SCC(N)C(=O)NC.[Fe+2] (stereo not given)		inactive: -35.6% [at 12.7 µM]
Cc1occc1C(=O)Nc1ccc(Br)cc1F	inconclusive: 11.2 µM [inhibitor, partial curve, poor fit]	
Cn1c(NC(=O)c2cccs2)cc(=O)n(C)c1=O	inconclusive: 89.1 µM [inhibitor, partial curve, poor fit]	
O=C(CSc1ncn[nH]1)OCN1C(=O)c2ccccc2C1=O	active: 35.5 µM	
CC(C)Cn1c(SCC(=O)NCCCN2CCCC2=O)nc2ccccc21	inconclusive: 56.2 µM [inhibitor, partial curve, poor fit]	
Cn1nnnc1SCC(=O)C(C)(C)C	inactive	
COc1ccc(C(CNC(=O)c2ccc(-c3ccccc3Cl)o2)N2CCOCC2)cc1 (stereo not given)	active: 44.7 µM	
Fc1ccccc1-c1cc2ncccc2cn1		inactive: -3.59% [at 0.501 µM]
CCOc1ccc(-n2c(=O)c3c(C)c(C(=O)N(C)C)sc3n(Cc3cc(C)ccc3C)c2=O)cc1	inactive	
CCOc1ccc(S(=O)(=O)N2CCN(C(=O)CN3C(=O)NC4(CCCC4)C3=O)CC2)cc1	active: 31.6 µM	

SMILES	Potency	activity, negative = inhibition
Cc1ccc(C(C)C)c(OCC(=O)NNC(=O)Cn2[nH]c(=O)c3ccccc3c2=O)c1	inactive	
O=C(Cc1ccccc1)Nc1ccc(N2CCOCC2)cc1	inactive	
Cc1ccc(-c2cn3cccnc3n2)cc1	inactive	
CCOC(=O)C1(Cc2cccc(OC)c2)CCN(Cc2csc(C(C)=O)c2)CC1	inconclusive: 17.8 µM [inhibitor, partial curve, poor fit]	
O=C1C(=O)N(CCN2CCOCC2)C(c2cccc(Cl)c2)/C1=C(\O)c1ccc2c(c1)OCCO2 (stereo not given)	active: 35.5 µM	
COC(=O)C1=C(C)Nc2nnnn2C1c1cc(OC)ccc1OC (stereo not given)	inconclusive: 89.1 µM [inhibitor, partial curve, poor fit]	
COc1ccc(S(=O)(=O)N[C@@H](C)C(=O)OCC(=O)Nc2cc3oc4ccccc4c3cc2OC)cc1	inactive	
Cc1cc(=O)oc2cc(OCC(=O)Nc3c(Cl)cccc3C(F)(F)F)ccc12	inconclusive: 70.8 µM [inhibitor, partial curve, poor fit]	
O=[N+]([O-])c1ccc(Cl)c(S(=O)(=O)Nc2ccc(-c3ccc(N4CCOCC4)nn3)cc2)c1	inconclusive: 12.6 µM [inhibitor, partial curve, poor fit]	
CCOc1ccc(S(=O)(=O)N(CC(=O)Nc2ccc3c(c2)OCO3)c2ccc(C)cc2)cc1	inactive	
COC(=O)c1ccc2nc(C)cc(Nc3cccc(Cl)c3C)c2c1	inconclusive: 11.2 µM [inhibitor, partial curve, poor fit]	
Cc1ccc(NC(c2nnc(-c3ccccc3)o2)c2ccccc2F)c(Cl)c1 (stereo not given)	inactive	
CCCCCCCCCCCCCC[N+](C)(C)Cc1ccccc1		inactive: -30.7% [at 12.7 µM]
O=C(CCc1nc2ccccc2c(=O)[nH]1)Nc1cccc(S(=O)(=O)N2CCCCC2)c1	inconclusive: 39.8 µM [inhibitor, partial curve, poor fit]	
C=CCn1c(C)cc(C(=O)COC(=O)C2CC(=O)N(CCc3ccc(OC)c(OC)c3)C2)c1C (stereo not given)	inconclusive: 44.7 µM [inhibitor, partial curve, poor fit]	
Cc1cc(C(=O)OCC(=O)NCCCN2CCCC2=O)c2ccccc2n1		inconclusive: -53.1% [inhibitor] [at 12.7 µM]
Cc1ccc(S(=O)(=O)N2[C@@H](c3ccccc3F)C(C(=O)O)=CC[C@H]2c2cccc(Cl)c2)cc1		inactive: -6.65% [at 2.33 µM]
CN(C)c1ccc(/C=N/c2cc(-c3ccccc3)nn2-c2ccccc2)cc1	inconclusive: 22.4 µM [inhibitor, single point]	
CC(=O)c1ccc(S(=O)(=O)N(C)CCCC(=O)NCc2ccc3c(c2)OCO3)cc1	inconclusive: 12.6 µM [inhibitor, partial curve, poor fit]	
CCOCCCNCC(=O)N1CCN(S(=O)(=O)c2ccc(C)cc2)CC1	active: 4.47 µM	
Cc1cc(-c2ccccc2)nc(N(C)NC(=O)C2CC2)c1S(C)(=O)=O	inactive	
CCn1c(=S)sc2c(=O)n(-c3ccccc3)c(SC)nc21	active: 44.7 µM	
